Results taken from the supplement of paper PMC4967469.
The IC50 comes from the fitted curve, where viability falls to half of the control; a fit beyond the top or the lowest dose is shown as a bound at that dose. AUC, from the same fit, is the share of area under the viability curve across the 256-fold dose range; it is 1 without any effect and falls as sensitivity rises. For some of these results: An inferred top dose comes from the curve model; the source does not state it. For some of these results: An entry number marks a drug with two screens in the source, which often give different values.

Assays:
Assay in all cases: Viability of human cancer cell lines after 72 h of drug (GDSC screen)
MG-132 = compound: CC(C)C[C@@H](C=O)NC(=O)[C@H](CC(C)C)NC(=O)[C@H](CC(C)C)NC(=O)OCc1ccccc1 [MG-132]; details: top dose 1 µM
Description: (§1)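 Human cancer cell lines in 384-well plates, medium with 10% serum, drug for 72 h over a 256-fold dose range (nine 2-fold or five 4-fold steps up to the top dose). Adherent lines were fixed and stained with the nucleic acid dye Syto60, suspension lines read with resazurin; signal relative to control wells, capped at 0 and 100%. One two-parameter sigmoid per drug and line, fitted in a mixed model over all curves with the slope shared within a line.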

AR-42 = compound: CC(C)[C@H](C(=O)Nc1ccc(C(=O)NO)cc1)c1ccccc1 [AR-42]; details: top dose 5.12 µM; top dose inferred
Description: as §1

Sunitinib = compound: CCN(CC)CCNC(=O)c1c(C)[nH]c(/C=C2\C(=O)Nc3ccc(F)cc32)c1C [Sunitinib]; details: top dose 8 µM
Description: as §1

Pazopanib = compound: Cc1ccc(Nc2nccc(N(C)c3ccc4c(C)n(C)nc4c3)n2)cc1S(N)(=O)=O [Pazopanib]; details: top dose 8 µM
Description: as §1

CEP-701 = compound: C[C@]12O[C@H](C[C@]1(O)CO)n1c3ccccc3c3c4c(c5c6ccccc6n2c5c31)CNC4=O [CEP-701]; details: top dose 2 µM; top dose inferred
Description: as §1

SB 216763 = compound: Cn1cc(C2=C(c3ccc(Cl)cc3Cl)C(=O)NC2=O)c2ccccc21 [SB 216763]; details: top dose 10 µM; top dose inferred
Description: as §1

GDC0941 = compound: CS(=O)(=O)N1CCN(Cc2cc3nc(-c4cccc5[nH]ncc45)nc(N4CCOCC4)c3s2)CC1 [GDC0941]; details: top dose 4 µM; screen: GDSC drug entry 1527; top dose inferred
Description: as §1

Row | Cell Line | AUC (MG-132) | IC50 (MG-132) [µM] | AUC (AR-42) | IC50 (AR-42) [µM] | AUC (Sunitinib) | IC50 (Sunitinib) [µM] | AUC (Pazopanib) | IC50 (Pazopanib) [µM] | AUC (CEP-701) | IC50 (CEP-701) [µM] | AUC (SB 216763) | IC50 (SB 216763) [µM] | AUC (GDC0941) | IC50 (GDC0941) [µM]
1 | BC-3 (B-cell lymphoma, suspension) | 0.88 | 0.849 | 0.429 | 0.21 | 0.913 | > 8 | 0.976 | > 8 | – | – | – | – | – | –
2 | CGTH-W-1 (thyroid, adherent) | 0.899 | > 1 | 0.657 | 0.873 | 0.21 | 0.0708 | 0.255 | 0.0995 | 0.451 | 0.0919 | 0.964 | > 10 | – | –
3 | COLO-829 (melanoma, adherent) | 0.683 | 0.261 | 0.672 | 1.22 | 0.978 | > 8 | 0.965 | > 8 | – | – | – | – | – | –
4 | COR-L88 (small cell lung carcinoma, adherent) | 0.955 | > 1 | – | – | 0.907 | > 8 | 0.89 | > 8 | 0.928 | > 2 | 0.986 | > 10 | 0.944 | > 4
5 | DJM-1 (skin, adherent) | 0.784 | 0.42 | 0.976 | > 5.12 | 0.97 | > 8 | 0.952 | > 8 | 0.742 | 0.613 | 0.974 | > 10 | – | –
6 | DOHH-2 (B-cell lymphoma, suspension) | 0.984 | > 1 | – | – | 0.7 | 1.8 | 0.966 | > 8 | 0.598 | 0.231 | 0.951 | > 10 | – | –
7 | DU-4475 (breast, suspension) | 0.655 | 0.154 | 0.399 | 0.178 | 0.8 | 3.06 | 0.984 | > 8 | 0.571 | – | 0.992 | > 10 | – | –
8 | EHEB (lymphoid neoplasm, suspension) | – | – | – | – | 0.923 | > 8 | 0.958 | > 8 | 0.741 | 0.859 | 0.977 | > 10 | 0.438 | 0.157
9 | ES3 (Ewing sarcoma, adherent) | 0.955 | > 1 | 0.461 | 0.249 | 0.94 | > 8 | 0.973 | > 8 | – | – | – | – | 0.812 | 2.28
10 | EW-1 (Ewing sarcoma, semi-adherent) | – | – | 0.295 | 0.0895 | 0.79 | 3.24 | 0.971 | > 8 | 0.799 | 0.87 | 0.989 | > 10 | 0.928 | > 4
11 | GA-10 (Burkitt lymphoma, suspension) | 0.747 | 0.277 | – | – | 0.529 | 0.593 | – | – | 0.45 | 0.0935 | 0.991 | > 10 | 0.54 | 0.315
12 | GI-1 (glioma, adherent) | 0.786 | 0.412 | 0.45 | 0.235 | 0.847 | 5.53 | 0.629 | 1.11 | – | – | 0.982 | > 10 | 0.69 | 0.83
13 | H-EMC-SS (chondrosarcoma, adherent) | 0.876 | > 1 | 0.944 | > 5.12 | 0.769 | 3.91 | 0.767 | 3.87 | – | – | – | – | – | –
14 | HCC-33 (small cell lung carcinoma, adherent) | 0.842 | 0.714 | 0.367 | 0.137 | 0.966 | > 8 | 0.985 | > 8 | – | – | – | – | – | –
15 | HD-MY-Z (Hodgkin lymphoma, adherent) | 0.724 | 0.271 | 0.552 | 0.443 | 0.85 | 6.14 | 0.979 | > 8 | 0.358 | 0.0504 | – | – | 0.891 | > 4
16 | Hs-445 (Hodgkin lymphoma, suspension) | 0.815 | 0.499 | 0.566 | 0.477 | 0.877 | 6.99 | 0.958 | > 8 | – | – | – | – | 0.783 | 1.55
17 | JAR (urogenital system, adherent) | 0.923 | > 1 | 0.456 | 0.244 | 0.763 | 2.84 | 0.953 | > 8 | – | – | – | – | 0.893 | > 4
18 | JSC-1 (B-cell lymphoma, suspension) | – | – | 0.26 | 0.0664 | 0.818 | 4.45 | 0.971 | > 8 | 0.523 | 0.145 | 0.984 | > 10 | – | –
19 | KALS-1 (glioma, adherent) | 0.744 | 0.416 | 0.66 | 1.06 | 0.884 | > 8 | 0.958 | > 8 | – | – | – | – | 0.772 | 2.15
20 | KARPAS-231 (B-cell leukaemia, suspension) | 0.803 | 0.367 | – | – | 0.767 | 2.34 | 0.854 | 4.17 | 0.311 | 0.0425 | 0.987 | > 10 | 0.916 | 3.5

Row | Cell Line | AUC (MG-132) | IC50 (MG-132) [µM] | AUC (AR-42) | IC50 (AR-42) [µM] | AUC (Sunitinib) | IC50 (Sunitinib) [µM] | AUC (Pazopanib) | IC50 (Pazopanib) [µM] | AUC (CEP-701) | IC50 (CEP-701) [µM] | AUC (SB 216763) | IC50 (SB 216763) [µM] | AUC (GDC0941) | IC50 (GDC0941) [µM]
21 | KLE (endometrium, adherent) | – | – | 0.683 | 1.39 | 0.911 | > 8 | 0.94 | > 8 | 0.776 | 1.31 | 0.961 | > 10 | 0.675 | 1.02
22 | KM12 (large intestine, adherent) | 0.743 | 0.334 | 0.653 | 0.886 | 0.476 | 0.429 | 0.941 | > 8 | – | – | 0.966 | > 10 | 0.984 | > 4
23 | LB996-RCC (kidney, adherent) | 0.881 | > 1 | 0.74 | 1.77 | 0.762 | 3.3 | 0.941 | > 8 | – | – | – | – | 0.64 | 0.653
24 | MHH-NB-11 (neuroblastoma, adherent) | 0.867 | > 1 | 0.288 | 0.0753 | 0.91 | > 8 | 0.985 | > 8 | 0.701 | 0.49 | 0.9 | > 10 | – | –
25 | MZ7-mel (melanoma, adherent) | 0.723 | 0.276 | 0.361 | 0.13 | 0.871 | 7.99 | 0.958 | > 8 | – | – | – | – | 0.92 | > 4
26 | NEC8 (testis, adherent) | 0.572 | 0.0952 | 0.278 | 0.0843 | 0.95 | > 8 | 0.926 | > 8 | 0.638 | 0.282 | – | – | 0.851 | 2.38
27 | NK-92MI (lymphoid neoplasm, suspension) | 0.732 | 0.271 | – | – | 0.757 | 2.58 | 0.976 | > 8 | – | – | – | – | – | –
28 | RL95-2 (endometrium, adherent) | 0.857 | 0.803 | 0.471 | 0.267 | 0.733 | 2.29 | – | – | 0.375 | 0.0568 | 0.987 | > 10 | 0.925 | > 4
29 | SCC-15 (head and neck, adherent) | 0.974 | > 1 | 0.671 | 1.14 | 0.871 | > 8 | 0.935 | > 8 | – | – | – | – | 0.556 | 0.375
30 | SIG-M5 (acute myeloid leukaemia, suspension) | 0.803 | 0.359 | 0.24 | 0.0727 | 0.688 | 1.44 | 0.99 | > 8 | – | – | – | – | – | –
31 | SIMA (neuroblastoma, adherent) | 0.96 | > 1 | 0.679 | 1.08 | 0.98 | > 8 | 0.954 | > 8 | 0.693 | 0.471 | – | – | 0.909 | > 4
32 | SK-LMS-1 (soft tissue, adherent) | 0.675 | 0.187 | 0.342 | 0.119 | 0.821 | 4.33 | 0.962 | > 8 | 0.274 | 0.0297 | – | – | 0.467 | 0.204
33 | SUP-HD1 (Hodgkin lymphoma, suspension) | – | – | 0.398 | 0.17 | 0.823 | 4.41 | 0.95 | > 8 | 0.478 | 0.109 | 0.976 | > 10 | 0.892 | > 4
34 | SW982 (soft tissue, adherent) | – | – | 0.604 | 0.624 | 0.778 | 3.34 | 0.854 | 6.6 | 0.355 | 0.0489 | 0.935 | > 10 | 0.759 | 1.43
35 | TC-71 (Ewing sarcoma, adherent) | 0.917 | > 1 | 0.397 | 0.176 | 0.99 | > 8 | 0.971 | > 8 | – | – | – | – | 0.703 | 0.829
36 | TE-8 (oesophagus, adherent) | – | – | 0.984 | > 5.12 | 0.739 | 2.55 | 0.758 | 2.95 | 0.762 | 0.764 | 0.982 | > 10 | 0.801 | 2.11
37 | TE-10 (oesophagus, adherent) | 0.724 | 0.266 | 0.979 | > 5.12 | 0.734 | 2.29 | 0.988 | > 8 | – | – | – | – | 0.745 | 1.24
38 | TE-11 (oesophagus, adherent) | – | – | 0.923 | > 5.12 | 0.705 | 1.78 | 0.77 | 2.79 | 0.656 | 0.324 | 0.99 | > 10 | 0.803 | 1.78
39 | U-698-M (B-cell leukaemia, suspension) | – | – | 0.678 | 1 | 0.97 | > 8 | 0.857 | 6.48 | 0.818 | 1.13 | 0.987 | > 10 | 0.785 | 1.71
